# Some of the results follow.
# What was measured:
# Test in all cases: glycan array binding signal (z-score within array); higher = stronger binding
# Settings in all cases: glycan notation: IUPAC condensed, linker removed
# [1] = target: Neu5Ac(a2-3)Gal(b1-4)GlcNAc(b1-6)GalNAc
# Procedure, shortened: (§1)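 The binding signal is a Z-score computed within each array. Data were drawn from 3228 arrays in the Consortium for Functional Glycomics database, restricted to those with a known protein sequence. Scores were averaged over arrays of the same protein sequence at different concentrations or buffers, and over linkers, and negative values can be taken as non-binding.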
# [2] = target: Neu5Ac(a2-3)Gal(b1-4)GlcNAc(b1-6)[Gal(b1-3)]GalNAc
# Procedure, shortened: as §1
# [3] = target: Neu5Ac(a2-3)Gal(b1-4)GlcNAc(b1-6)[Neu5Ac(a2-3)Gal(b1-3)]GalNAc
# Procedure, shortened: as §1
# [4] = target: Neu5Ac(a2-3)Gal(b1-4)GlcNAc6S
# Procedure, shortened: as §1
# [5] = target: Neu5Ac(a2-3)Gal(b1-4)[Fuc(a1-3)]GlcNAc
# Procedure, shortened: as §1
# [6] = target: Neu5Ac(a2-3)Gal(b1-4)[Fuc(a1-3)]GlcNAc(b1-2)Man
# Procedure, shortened: as §1
# [7] = target: Neu5Ac(a2-3)Gal(b1-4)[Fuc(a1-3)]GlcNAc(b1-3)Gal
# Procedure, shortened: as §1
# [8] = target: Neu5Ac(a2-3)Gal(b1-4)[Fuc(a1-3)]GlcNAc(b1-3)Gal(b1-4)GlcNAc
# Procedure, shortened: as §1
# [9] = target: Neu5Ac(a2-3)Gal(b1-4)[Fuc(a1-3)]GlcNAc(b1-3)Gal(b1-4)[Fuc(a1-3)]GlcNAc(b1-3)Gal(b1-4)[Fuc(a1-3)]GlcNAc
# Procedure, shortened: as §1
# [10] = target: Neu5Ac(a2-3)Gal(b1-4)[Fuc(a1-3)]GlcNAc(b1-3)GalNAc
# Procedure, shortened: as §1
# [11] = target: Neu5Ac(a2-3)Gal(b1-4)[Fuc(a1-3)]GlcNAc(b1-6)[Gal(b1-3)]GalNAc
# Procedure, shortened: as §1
# [12] = target: Neu5Ac(a2-3)Gal(b1-4)[Fuc(a1-3)]GlcNAc(b1-6)[Neu5Ac(a2-3)Gal(b1-3)]GalNAc
# Procedure, shortened: as §1
# [13] = target: Neu5Ac(a2-3)Gal(b1-4)[Fuc(a1-3)]GlcNAc6S
# Procedure, shortened: as §1
# [14] = target: Neu5Ac(a2-3)Gal6S(b1-4)GlcNAc
# Procedure, shortened: as §1
# [15] = target: Neu5Ac(a2-3)Gal6S(b1-4)[Fuc(a1-3)]GlcNAc
# Procedure, shortened: as §1
# Neu5Ac(a2-3)GalNAc = target: Neu5Ac(a2-3)GalNAc
# Procedure, shortened: as §1
# [16] = target: Neu5Ac(a2-3)GalNAc(b1-4)GlcNAc
# Procedure, shortened: as §1
# [17] = target: Neu5Ac(a2-3)[GalNAc(b1-4)]Gal(b1-4)Glc
# Procedure, shortened: as §1
# [18] = target: Neu5Ac(a2-3)[GalNAc(b1-4)]Gal(b1-4)GlcNAc
# Procedure, shortened: as §1
# [19] = target: Neu5Ac(a2-3)[GalNAc(b1-4)]Gal(b1-4)GlcNAc(b1-3)GalNAc
# Procedure, shortened: as §1
# [20] = target: Neu5Ac(a2-3)[Neu5Ac(a2-6)]GalNAc
# Procedure, shortened: as §1
# Neu5Ac(a2-6)Gal = target: Neu5Ac(a2-6)Gal
# Procedure, shortened: as §1
# [21] = target: Neu5Ac(a2-6)Gal(b1-3)GlcNAc(b1-3)[Gal(b1-4)GlcNAc(b1-6)]Gal(b1-4)Glc
# Procedure, shortened: as §1
# Neu5Ac(a2-6)Gal(b1-4)Glc = target: Neu5Ac(a2-6)Gal(b1-4)Glc
# Procedure, shortened: as §1
# [22] = target: Neu5Ac(a2-6)Gal(b1-4)GlcNAc
# Procedure, shortened: as §1
# [23] = target: Neu5Ac(a2-6)Gal(b1-4)GlcNAc(b1-2)Man
# Procedure, shortened: as §1
# [24] = target: Neu5Ac(a2-6)Gal(b1-4)GlcNAc(b1-2)Man(a1-3)Man(b1-4)GlcNAc(b1-4)GlcNAc
# Procedure, shortened: as §1
# [25] = target: Neu5Ac(a2-6)Gal(b1-4)GlcNAc(b1-2)Man(a1-3)[Gal(b1-4)GlcNAc(b1-2)Man(a1-6)]Man(b1-4)GlcNAc(b1-4)GlcNAc
# Procedure, shortened: as §1
# [26] = target: Neu5Ac(a2-6)Gal(b1-4)GlcNAc(b1-2)Man(a1-3)[GlcNAc(b1-4)][Neu5Ac(a2-6)Gal(b1-4)GlcNAc(b1-2)Man(a1-6)]Man(b1-4)GlcNAc(b1-4)GlcNAc
# Procedure, shortened: as §1
# [27] = target: Neu5Ac(a2-6)Gal(b1-4)GlcNAc(b1-2)Man(a1-3)[Man(a1-6)]Man(b1-4)GlcNAc(b1-4)GlcNAc
# Procedure, shortened: as §1
binder,measurement,setting,value
"Pa IMPa (Pseudomonas aeruginosa), Q9I5W4 (protein) MSLSTTAFPSLQGENMSRSPIPRHRALLAGFCLAGALSAQAATQEEILDAALVSGDSSQLTDSHLVALRLQQQVERIRQTRTQLLDGLYQNLSQAYDPGAASMWVLPANPDNTLPFLIGDKGRVLASLSLEAGGRGLAYGTNVLTQLSGTNAAHAPLLKRAVQWLVNGDPGAATAKDFKVSVVGVDKTAALNGLKSAGLQPADAACNALTDASCASTSKLLVLGNGASAASLSATVRARLQAGLPILFVHTNGWNQSSTGQQILAGLGLQEGPYGGNYWDKDRVPSSRTRTRSVELGGAYGQDPALVQQIVDGSWRTDYDWSKCTSYVGRTTCDDVPGLSDFSKRVDVLKGALDAYNQKAQNLFALPGTTSLRLWLLWADAVRQNIRYPMDKAADTARFQETFVADAIVGYVREAGAAQKELGSYAGQRQQSMPVSGSEETLTLTLPSAQGFTAIGRMAAPGKRLSIRIEDAGQASLAVGLNTQRIGSTRLWNTRQYDRPRFLKSPDIKLQANQSVALVSPYGGLLQLVYSGATPGQTVTVKVTGAASQPFLDIQPGEDSSQAIADFIQALDADKADWLEIRSGSVEVHAKVEKVRGSIDKDYGGDVQRFIRELNEVFIDDAYTLAGFAIPNQAKTPAIQQECAARGWDCDSETLHKLPGTQHINVDQYAQCGGGCSGNPYDQTWGLNPRGWGESHELGHNLQVNRLKVYGGRSGEISNQIFPLHKDWRVLREFGQNLDDTRVNYRNAYNLIVAGRAEADPLAGVYKRLWEDPGTYALNGERMAFYTQWVHYWADLKNDPLQGWDIWTLLYLHQRQVDKSDWDANKAALGYGTYAQRPGNSGDASSTDGNDNLLLGLSWLTQRDQRPTFALWGIRTSAAAQAQVAAYGFAEQPAFFYANNRTNEYSTVKLLDMSQGSPAWPFP",glycan array binding signal (z-score),[1],-0.564
same,glycan array binding signal (z-score),[2],0.175
same,glycan array binding signal (z-score),[3],-0.048
same,glycan array binding signal (z-score),[4],-0.404
same,glycan array binding signal (z-score),[5],-0.302
same,glycan array binding signal (z-score),[6],0.242
same,glycan array binding signal (z-score),[7],-0.735
same,glycan array binding signal (z-score),[8],-0.079
same,glycan array binding signal (z-score),[9],-0.52
same,glycan array binding signal (z-score),[10],0.169
same,glycan array binding signal (z-score),[11],-0.347
same,glycan array binding signal (z-score),[12],-0.52
same,glycan array binding signal (z-score),[13],0.024
same,glycan array binding signal (z-score),[14],-0.43
same,glycan array binding signal (z-score),[15],0.247
same,glycan array binding signal (z-score),Neu5Ac(a2-3)GalNAc,-0.184
same,glycan array binding signal (z-score),[16],-0.618
same,glycan array binding signal (z-score),[17],-0.664
same,glycan array binding signal (z-score),[18],-0.345
same,glycan array binding signal (z-score),[19],0.22
same,glycan array binding signal (z-score),[20],-0.291
same,glycan array binding signal (z-score),Neu5Ac(a2-6)Gal,-0.562
same,glycan array binding signal (z-score),[21],-0.019
same,glycan array binding signal (z-score),Neu5Ac(a2-6)Gal(b1-4)Glc,0.158
same,glycan array binding signal (z-score),[22],-0.11
same,glycan array binding signal (z-score),[23],-0.409
same,glycan array binding signal (z-score),[24],-0.419
same,glycan array binding signal (z-score),[25],-0.037
same,glycan array binding signal (z-score),[26],0.947
same,glycan array binding signal (z-score),[27],-0.637
